About 25,000 (6.9%) of roughly 360,000 compounds were called active. This list was built around the results that the source calls inconclusive (neither active nor inactive); the mix of calls is not that of the screen. Calls come from the whole dose curve; as a rule, active = well fitted inhibition curve with a large enough effect; inconclusive = small, poorly fitted or top-dose-only effect; inactive = flat fitted curve, though single readings scatter. Where the call is inconclusive, the potency comes from a doubtful curve fit.
These compounds were tested against Luciferin 4-monooxygenase (Photinus pyralis) (UniProt P08659) (assay: qHTS profiling assay for firefly luciferase inhibitor/activator using purifed enzyme and Km concentrations of substrates (counterscreen for miR-21 project)). Conditions: purified FLuc, luminescence inhibition; activity change, negative = inhibition: at 57.5 µM (top of the series).
Chain of UniProt P08659 (P08659 whole entry, looked up): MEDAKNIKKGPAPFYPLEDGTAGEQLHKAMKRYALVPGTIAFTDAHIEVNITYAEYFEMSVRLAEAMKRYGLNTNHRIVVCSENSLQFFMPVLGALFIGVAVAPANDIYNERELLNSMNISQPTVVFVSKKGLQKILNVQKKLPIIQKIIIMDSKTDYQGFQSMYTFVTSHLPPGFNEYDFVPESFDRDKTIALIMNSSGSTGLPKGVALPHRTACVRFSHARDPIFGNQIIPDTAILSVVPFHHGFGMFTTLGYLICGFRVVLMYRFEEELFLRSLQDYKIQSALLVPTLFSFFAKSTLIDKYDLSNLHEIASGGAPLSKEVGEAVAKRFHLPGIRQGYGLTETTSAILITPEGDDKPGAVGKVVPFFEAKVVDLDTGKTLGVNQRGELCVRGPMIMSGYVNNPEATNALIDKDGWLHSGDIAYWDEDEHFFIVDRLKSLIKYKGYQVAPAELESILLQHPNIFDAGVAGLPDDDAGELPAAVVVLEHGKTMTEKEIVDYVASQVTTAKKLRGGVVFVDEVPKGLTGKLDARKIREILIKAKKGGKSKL
Summary of the method: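 Purified P. pyralis luciferase, 10 nM final, with Km-level 10 uM D-luciferin and 10 uM ATP in 50 mM Tris acetate pH 7.5, 10 mM Mg acetate, 0.01% Tween-20, 0.05% BSA; 6-point qHTS titration about 60 µM downward; luminescence read.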
Note: nearly all actives have a fitted effect of over 55% in size.
Potency is the fitted concentration of half-maximal effect; tags give direction and shape of the fitted curve.
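Throughout, for activity change, negative = inhibition: plate controls were vehicle for no effect and reference inhibitor for full effect.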

Structure (SMILES) | Potency | activity change, negative = inhibition
COc1cccc(/C=N/n2cnc3ccccc32)c1OC | active: 4.78 µM | 
COc1cccc(-c2ncc3ccccc3c2COC(=O)N2CCOCC2)c1 | inconclusive: 23.9 µM [inhibitor, single point] | 
COc1cc(C(Nc2ccccn2)c2ccc3ccc(C)nc3c2O)cc(OC)c1O (centres undefined) | inconclusive: 30.1 µM [inhibitor, partial curve, poor fit] | 
Cc1noc(C)c1S(=O)(=O)N1CCCC(C(=O)Nc2ccc(Cl)cn2)C1 (centres undefined) |  | inactive: -1.08%
CCOc1ccc(N(CC(=O)NC2CC2)S(=O)(=O)c2ccc(C)cc2)cc1 |  | inactive: 1.65%
CCOc1cc(CNC(=O)c2ccccc2NC(=O)c2nsc3ccccc23)ccc1OC | inconclusive: 23.9 µM [inhibitor, partial curve] | 
CCn1c(SCC(=O)Nc2nc(-c3ccc(C)cc3)cs2)nnc1-c1ccccc1 | active: 23.9 µM | 
COc1ccccc1NC(=O)c1ccc(NC(=O)c2ccc(=O)[nH]c2)cc1 |  | inactive: -11%
CCOc1ccc(Cc2nnc(SCC(=O)Nc3ccccc3)n(N)c2=O)cc1 | inconclusive: 3.79 µM [inhibitor, partial curve, poor fit] | 
CC(c1ccccc1)c1nnc(N)s1 (centres undefined) |  | inactive: -3.36%
CCOC(=O)c1sc(NC(=O)c2ccc(C)s2)cc1C | active: 0.849 µM | 
Cc1ccc(CN2CCN(C3CCCC3)C(CCO)C2)s1 (centres undefined) |  | inactive: -12.8%
O=C(CCSc1ccccc1)Nc1ccccc1Br | inconclusive: 26.9 µM [inhibitor, partial curve] | 
CN(C)S(=O)(=O)c1ccc(C(=O)Nc2ccccn2)cc1 | inconclusive: 23.9 µM [inhibitor, single point] | 
CC(=O)NCc1cc(Cl)c2cccnc2c1O |  | inactive: -1.31%
O=C1ON=C(c2ccccc2)/C1=C/c1ccc(O)c(O)c1 | inconclusive: 9.53 µM [inhibitor, partial curve] | 
CC1CCCC(C)N1C(=O)COC(=O)c1n[nH]c(=O)c2ccccc12 (centres undefined) | inconclusive: 16.9 µM [inhibitor, partial curve] | 
CN(C(=O)c1cccs1)c1ccc(OCC(=O)Nc2ccc(C(=O)O)cc2)cc1 | active: 16.9 µM | 
CC(Sc1ccc(S(=O)(=O)N2CCN(C)CC2)cn1)C(=O)NC1CCCCC1 (centres undefined) |  | inactive: 6.32%
COc1cccc(/C=C2\Oc3cc(OCC(=O)N4CCCCC4)ccc3C2=O)c1OC | active: 9.53 µM | 
CCN(C(=O)CSc1nnc(-c2cc(OC)c(OC)c(OC)c2)o1)c1ccccc1 | inconclusive: 19 µM [inhibitor, partial curve] | 
O=C1/C(=C/c2cccc([N+](=O)[O-])c2)CSc2ccc(Cl)cc21 |  | inactive: -13.4%
Cc1cccc(-n2ncc3c(N)ncnc32)c1 | inconclusive: 23.9 µM [inhibitor, single point] | 
COc1cc(/C=N/NC(=O)Nc2ccccc2)ccc1OCCOc1ccccc1C |  | inactive: 3.18%
COC(=O)c1ccc(NC(=O)CS(=O)(=O)c2ccccc2)cc1 |  | inactive: -11.5%

Structure (SMILES) | Potency | activity change, negative = inhibition
CCOc1ccc(C(=O)CSc2nnc(C3CC3)n2C)cc1 | inconclusive: 30.1 µM [inhibitor, partial curve, poor fit] | 
COc1ccc(CN(C)c2ccc(-c3nc(-c4ccccc4)no3)cc2[N+](=O)[O-])cc1 | inconclusive: 12 µM [inhibitor, partial curve] | 
Cc1ccc(SC(=O)COc2ccccc2C)cc1 | inconclusive: 21.3 µM [inhibitor, single point] | 
CC(=O)n1nc(-c2ccco2)nc1SCc1ccccc1 | inconclusive: 23.9 µM [inhibitor, single point] | 
Cc1ccc(/C=N/Nc2ccc(F)cc2)s1 | inconclusive: 30.1 µM [inhibitor, single point] | 
CC(C)c1ccc(Nc2nnns2)cc1 | inconclusive: 23.9 µM [inhibitor, partial curve] | 
CCCOc1ccc(C(=O)NC(=S)N2CCN(c3cc4c(cc3F)c(=O)c(C(=O)O)cn4CC)CC2)cc1 |  | inactive: -18.2%
CCn1nc(C)c(/C=N/NC(=O)Cn2nccc2C)c1C | inconclusive: 23.9 µM [inhibitor, single point] | 
C=CCNC(=O)C1CC2Cn3c(nc4cc(Cl)c(Cl)cc43)C2N1C (centres undefined) |  | inactive: 0.989%
O=C(Nc1cccc2ncccc12)c1ccc2c(c1)OCCO2 | inconclusive: 16.9 µM [inhibitor, partial curve] | 
CCOC(=O)c1ccc(NC(=O)CN2C(=O)C3C4C=CC(C4)C3C2=O)cc1 (centres undefined) |  | inactive: -0.611%
O=C(Nc1cccc(O)c1)c1cc2nc(-c3ccc(Br)cc3)cc(C(F)(F)F)n2n1 |  | inactive: -2.97%
COc1ccc(-c2noc(CCCC(=O)Nc3ccc(C(N)=O)cc3)n2)cc1 | inconclusive: 9.53 µM [inhibitor, partial curve] | 
Cc1ccc2nc(CSc3nc(C)cc(C)c3C#N)[nH]c2c1 | active: 3.38 µM | 
CC(C)(C)SCCNC(=O)/C=C/c1cccc([N+](=O)[O-])c1 | inconclusive: 37.9 µM [inhibitor, partial curve, poor fit] | 
COc1ccc(Cn2cccc(NC(=O)Nc3ccc(C#N)cc3)c2=O)cc1 |  | inactive: -0.943%
CCN(CC)S(=O)(=O)c1ccc(OC)c(NC(=O)C2CC(=O)N(c3ccc(C)cc3)C2)c1 (centres undefined) |  | inactive: 3.29%
COc1ccc(/C(C)=N/N2C(=O)c3ccccc3NC2c2ccc(O)c(OC)c2)cc1 (centres undefined) | active: 13.5 µM | 
Cc1ccccc1N=C1NC(=O)CS1 |  | inactive: -0.117%
N/C(=N\OC(=O)c1cccc(Br)c1)c1ccc([N+](=O)[O-])cc1 | inconclusive: 13.5 µM [inhibitor, partial curve, poor fit] | 
Cc1nc2nc(NC(=O)c3ccc(C(C)(C)C)cc3)[nH]n2c(=O)c1Cl | inconclusive: 15.1 µM [inhibitor, partial curve] | 
CCOC(=O)c1ccc(-c2ccc(/C=C(\C#N)C(=O)NCC3CCCO3)o2)cc1 (centres undefined) | inconclusive: 7.57 µM [inhibitor, partial curve, poor fit] | 
O=C(NCC1CCCO1)c1cc2ccccc2[nH]1 (centres undefined) | inconclusive: 26.9 µM [inhibitor, partial curve, poor fit] | 
c1coc(CNc2ncnc3sc4c(c23)CCCCC4)c1 | inconclusive: 37.9 µM [inhibitor, partial curve, poor fit] | 
CCn1nc(C(=O)Nc2ccc(S(=O)(=O)Nc3ncccn3)cc2)c2ccccc2c1=O |  | inactive: -7.15%

Structure (SMILES) | Potency | activity change, negative = inhibition
COc1ccccc1-c1ccc(C(=O)O)o1 | inconclusive: 37.9 µM [inhibitor, partial curve, poor fit] | 
COC(=O)c1sccc1NC(=O)/C=C/c1ccc(Cl)cc1 | inconclusive: 2.39 µM [inhibitor, full curve] | 
Cc1cc(OCC(=O)N2CCOCC2)cc2oc(=O)c3ccccc3c12 | inconclusive: 19 µM [inhibitor, partial curve, poor fit] | 
CC(C)(C)c1cc(NC(=O)c2ccco2)no1 | active: 5.36 µM | 
COc1ccc(-c2nc3ccccc3n2CCC(C)C)cc1OC | inconclusive: 21.3 µM [inhibitor, partial curve, poor fit] | 
Cc1ccc(NC(=O)C2CCN(S(=O)(=O)c3ccc4[nH]c(=O)ccc4c3)CC2)cc1C | inconclusive: 9.53 µM [inhibitor, partial curve, poor fit] | 
CCC(Oc1ccccc1)C(=O)Nc1ccccc1OCc1cc(=O)n2ccccc2n1 (centres undefined) |  | inactive: 6.38%
O=C(O)c1ccc2c(c1)C(=O)/C(=C/c1ccccc1)C2=O | inconclusive: 23.9 µM [inhibitor, single point] | 
Cc1ccc2cccc(OCC(=O)c3cc(C)n(Cc4ccco4)c3C)c2n1 | inconclusive: 9.53 µM [inhibitor, partial curve] | 
Cc1cccc(CNC(=O)c2cnc3sc(N4CCCCC4)nn3c2=O)c1 |  | inactive: -1.04%
CCOC(=O)C=C(C(=O)OCC)C(=O)OCC | inconclusive: 19 µM [inhibitor, partial curve, poor fit] | 
O=C(Nc1cccc(N2C(=O)C=CC2=O)c1)c1cccs1 | inconclusive: 33.8 µM [inhibitor, single point] | 
O=C(N/N=C/c1cccc(O)c1)c1ccc(NC(=O)C2CCCCC2)cc1 | inconclusive: 10.7 µM [inhibitor, partial curve, poor fit] | 
Cc1ccc2nc(NC(=S)NC(=O)c3ccc(OC(C)C)cc3)sc2c1 | inconclusive: 9.53 µM [inhibitor, partial curve] | 
Cc1cc2nc3ccc(=[N+](C)C)cc-3sc2cc1N | active: 16.9 µM | 
Cc1cccc(NC(=O)C(=O)NCC(c2cccnc2)N2CCOCC2)c1 (centres undefined) | inconclusive: 26.9 µM [inhibitor, single point] | 
COc1ccc(C)cc1NC(=O)C(=O)NCCc1csc(-c2ccc(C)cc2)n1 |  | inactive: -0.829%
C#CCNC(=O)C1=C[C@H](c2ccc(C(F)(F)F)cc2)C[C@H](OCc2ccc(CO)cc2)O1 |  | inactive: -1.19%
Cc1cccn2cc(-c3ccc(NC(=O)Cc4ccccc4)cc3)nc12 |  | inactive: -1.41%
O=C(O)/C=C\c1ccccc1Oc1cccc(Cl)c1 | inconclusive: 23.9 µM [inhibitor, partial curve] | 
Clc1ccc(C2CSc3c4ncnc-4ncn32)cc1 (centres undefined) |  | inactive: 4.83%
CCOC(=O)c1ccc(NC(=O)c2oc3ccc4c(c3c2C)C(=O)CC(C)(CC)O4)cc1 (centres undefined) |  | inactive: -15.8%
CCOC(=O)C1CCCN(c2ncnc3c2cnn3-c2ccc(C)c(Cl)c2)C1 (centres undefined) | inconclusive: 21.3 µM [inhibitor, partial curve] | 
Cc1ccc(S(=O)(=O)N=C2SCCCS2)cc1 | inconclusive: 23.9 µM [inhibitor, partial curve, poor fit] | 

— PubChem BioAssay AID588342 (National Center for Advancing Translational Sciences (NCATS), 2011)
